# Test results from PubChem BioAssay (NCATS).
# Inconclusive results, whose numbers are uncertain, are shown with a selection of clear calls. For some assays here: Where the call is inconclusive, the potency comes from a doubtful curve fit. Active and inactive are the calls of the source. Calls come from the whole dose curve; as a rule, active = well fitted curve in the direction sought with a large enough effect; inconclusive = small, poorly fitted or top-dose-only effect, or another doubt; inactive = no such curve, though single readings can be large; an effect the other way counts as inactive or inconclusive.
# Legend:
# [1] = molecular target: Endonuclease 4 (Escherichia coli (strain K12)) (UniProt P0A6C1); test: Counterscreen for APE1 Inhibitors: qHTS Assay for Inhibitors of Endonuclease IV (AID 2565); note: potency is the fitted concentration of half-maximal effect
# Method in brief: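 E. coli EndoIV at 2 nM final, preincubated 15 min at room temperature with compound, then 50 nM TAMRA/BHQ-2 THF abasic-site duplex added. Buffer: 50 mM Tris-HCl pH 7.5, 50 mM NaCl, 2 mM MgCl2, 1 mM DTT, 0.01% Tween-20. Kinetic fluorescence increase, third minus first read.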
# [2] = molecular target: Furin (Homo sapiens) (UniProt P09958); test: Furin counterscreen qHTS for Zika virus inhibitors (AID 1347149); details: furin enzymatic counterscreen, fluorogenic substrate; activity change, negative = inhibition: at 114 µM (top of the series); note: nearly all actives have a fitted effect of over 70% in size; note: potency is the fitted concentration of half-maximal effect;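 for activity change, negative = inhibition: purified recombinant full-length human furin enzyme at 5 nM; fluorescence gain from furin cutting a BOC-RVRR-AMC peptide substrate over 15 min; top concentration of the series differs between compounds; plate controls were no-inhibitor control for no effect and no-enzyme control for full effect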
# Method in brief: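 Fluorogenic cleavage of BOC-RVRR-AMC (2 microM final, Km ~15 µM) was monitored (ex 340, em 450 nm) at 37C after 15 min RT preincubation of 5 nM furin with compounds in HEPES pH 7.0 buffer with CaCl2 and Triton X-100. Percent inhibition was fitted to a 4-parameter Hill curve.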
# [3] = ZIKV-mCherry secondary qHTS for Zika virus inhibitors (AID 1347158); details: Vero cells, ZIKV-mCherry infection imaging, 48-72 h; activity change, negative = inhibition: at 49.2 µM (top of the series); note: potency is the fitted concentration of half-maximal effect; for activity change, negative = inhibition: top concentration of the series differs between compounds
# Method in brief: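 Vero, 5,000 cells/well, o/n 37 °C; cpd pin-transferred in DMSO; ZIKV-mCherry MOI 1, 48-72 h 37 °C; 32% PFA stock fix, Hoechst; imaged 10x DAPI/mCherry; mCherry+ threshold 450 RFU; % infection.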
# [4] = Confirmatory screen NINDS Rhodamine qHTS for Zika virus inhibitors (AID 1347161); note: nearly all actives have a fitted effect of over 60% in size; note: potency is the fitted concentration of half-maximal effect;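 for activity change, negative = inhibition: purified Zika NS2B-NS3 protease with linked NS2B cofactor domain and Rhodamine110 peptide substrate; plate controls were no-inhibitor control for no effect and no-enzyme control for full effect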
# Method in brief: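 Single-chain NS2B-NS3 protease, 25 nM, pH 8.0; compounds preincubated 15 min. Activity: Rhodamine110 release from 1.5 microM substrate over 15 min, room temperature, data fitted to 4-parameter Hill.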
# [5] = Tertiary RLuc qRT-PCR qHTS assay for Zika virus inhibitors (AID 1347169); note: nearly all actives have a fitted effect of over 55% in size; note: potency is the fitted concentration of half-maximal effect; for activity change, negative = inhibition: top concentration of the series differs between compounds; % is set by controls: 0 for no effect and ±100 for the full control effect
# Method in brief: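 Orthogonal cell-based readout: luminescence measured 1-1.5 hrs after adding live-cell Renilla substrate to Vero cells that had been infected with ZIKV-RLuc (MOI 1-2) post-compound, incubated 48-72 hrs at 37 degrees C.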
# [6] = molecular target: Rap guanine nucleotide exchange factor 3 (Homo sapiens) (UniProt O95398); test: Confirmatory qHTS for antagonist of cAMP-regulated guanine nucleotide exchange factor 3 (EPAC1) (AID 1645880); details: EPAC1 Rap1B-BODIPY-GDP exchange, fluorescence; activity, negative = inhibition: at 115 µM (top of the series);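 note: plate controls were DMSO only for no effect and full effect of the ATA control for full effect; nearly all actives have a fitted effect of over 55% in size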
# Method in brief: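 Nucleotide exchange uses 100 nM EPAC1, 250 nM RAP1B-BODIPY-GDP and 50 uM GDP, with compounds in a concentration-titration series. After 5 min at room temperature, fluorescence (480 nm ex/540 nm em) is read every 5 min for 30 min. Data are normalized to control ATA and DMSO.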
# [7] = molecular target: Rap guanine nucleotide exchange factor 4 (Homo sapiens) (UniProt Q8WZA2); test: Confirmatory qHTS for agonist of cAMP-regulated guanine nucleotide exchange factor 4 (EPAC2) (AID 1645884); details: EPAC2 GEF activity, Rap1B-BODIPY-GDP fluorescence; activation: at 154 µM (top of the series), percent relative to cAMP agonist control;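 note: nucleotide exchange releases bodipy-GDP from Rap1 and this lowers its fluorescence; potency is the fitted concentration of half-maximal effect; nearly all actives have a fitted effect of over 65% in size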
# [8] = molecular target: Rap guanine nucleotide exchange factor 3 (Homo sapiens) (UniProt O95398); test: Counterscreen qHTS for agonist of cAMP-regulated guanine nucleotide exchange factor 3 (EPAC1) (AID 1645889); details: EPAC1 Rap1B-BODIPY-GDP exchange, fluorescence; activation: at 154 µM (top of the series) unless noted; note: % of control where 0% means no effect; nearly all actives have a fitted effect of over 40% in size
# Method in brief: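 Rap1B–BODIPY-GDP (250 nM) with 50 uM GDP; compounds pin-transferred to 9.74 nM–152 uM final (activator) or from 7.32 nM upwards (inhibitor). Fluorescence Ex/Em 480/540 nm read at 5 and 30 min, then after adding cAMP or buffer, at room temperature.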
# [9] = molecular target: DNA polymerase eta (Homo sapiens) (UniProt Q9Y253); test: qHTS for Inhibitors of Polymerase Eta: Confirmatory Assay for Cherry-picked Compounds (AID 720502); details: Pol eta primer extension, TAMRA/BHQ fluorescence, 10 min; note: potency is the fitted concentration of half-maximal effect
# Method in brief: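 Plates with 10 nM enzyme and compound stood 15 min at room temperature before substrate addition (50 nM final). Displacement of the TAMRA reporter from the BHQ-2 template was tracked for 10 min.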
# [10] = tested on: Zika virus NS2B-NS3 protease (linked construct); test: 384 well plate NINDS Rhodamine confirmatory qHTS for Zika virus inhibitors (AID 1347164);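 note: fluorescence from protease cleavage of Ac-LKRR-rhodamine 110 substrate; potency is the fitted concentration of half-maximal effect; nearly all actives have a fitted effect of over 65% in size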
# Method in brief: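 Fluorescence at 485/538 nm was measured 25 minutes after adding 10 microM Ac-LKRR-Rd substrate, in the dark at room temperature. The protease (5, 30 or 60 nM final) had been preincubated ~15 minutes with compound; aprotinin as control.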
# [11] = tested on: Zika virus NS2B-NS3 protease (linked); test: 384 well plate NINDS AMC confirmatory qHTS for Zika virus inhibitors (AID 1347163); note: potency is the fitted concentration of half-maximal effect; nearly all actives have a fitted effect of over 50% in size
# Method in brief: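 Linked NS2B-NS3 protease (final 5 nM, 30 nM or 60 nM) was preincubated with compounds (final up to 1 mM) for ~15 minutes. Ac-VKTGKR-AMC substrate (final 30 microM) then reacted for 25 minutes at room temperature in the dark. Fluorescence (ex 355/em 460 nm) was normalized to no-enzyme and no-inhibitor controls.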
# Tags give direction and shape of the fitted curve.
# Sequence of UniProt P09958 (P09958 whole entry, looked up): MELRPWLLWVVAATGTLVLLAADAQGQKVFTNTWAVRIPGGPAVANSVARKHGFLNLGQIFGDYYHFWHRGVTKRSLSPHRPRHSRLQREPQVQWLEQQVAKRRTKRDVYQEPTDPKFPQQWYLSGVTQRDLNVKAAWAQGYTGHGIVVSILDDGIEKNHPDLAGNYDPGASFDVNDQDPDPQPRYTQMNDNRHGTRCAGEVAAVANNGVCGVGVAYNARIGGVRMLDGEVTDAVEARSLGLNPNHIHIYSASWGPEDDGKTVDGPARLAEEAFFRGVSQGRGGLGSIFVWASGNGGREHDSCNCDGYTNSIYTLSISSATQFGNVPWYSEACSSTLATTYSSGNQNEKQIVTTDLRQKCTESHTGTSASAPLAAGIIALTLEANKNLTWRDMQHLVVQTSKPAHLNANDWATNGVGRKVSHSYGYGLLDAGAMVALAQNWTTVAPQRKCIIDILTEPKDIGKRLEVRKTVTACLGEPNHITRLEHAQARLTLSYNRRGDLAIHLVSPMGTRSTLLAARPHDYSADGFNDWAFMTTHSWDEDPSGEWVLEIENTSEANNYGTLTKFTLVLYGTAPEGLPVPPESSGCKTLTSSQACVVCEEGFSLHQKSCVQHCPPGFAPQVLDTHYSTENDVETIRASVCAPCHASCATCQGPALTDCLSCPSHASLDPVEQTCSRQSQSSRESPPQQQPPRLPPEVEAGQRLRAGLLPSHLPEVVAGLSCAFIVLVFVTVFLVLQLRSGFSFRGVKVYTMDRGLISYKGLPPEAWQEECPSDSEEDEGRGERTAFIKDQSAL
# Sequence of UniProt O95398 (O95398 whole entry, looked up): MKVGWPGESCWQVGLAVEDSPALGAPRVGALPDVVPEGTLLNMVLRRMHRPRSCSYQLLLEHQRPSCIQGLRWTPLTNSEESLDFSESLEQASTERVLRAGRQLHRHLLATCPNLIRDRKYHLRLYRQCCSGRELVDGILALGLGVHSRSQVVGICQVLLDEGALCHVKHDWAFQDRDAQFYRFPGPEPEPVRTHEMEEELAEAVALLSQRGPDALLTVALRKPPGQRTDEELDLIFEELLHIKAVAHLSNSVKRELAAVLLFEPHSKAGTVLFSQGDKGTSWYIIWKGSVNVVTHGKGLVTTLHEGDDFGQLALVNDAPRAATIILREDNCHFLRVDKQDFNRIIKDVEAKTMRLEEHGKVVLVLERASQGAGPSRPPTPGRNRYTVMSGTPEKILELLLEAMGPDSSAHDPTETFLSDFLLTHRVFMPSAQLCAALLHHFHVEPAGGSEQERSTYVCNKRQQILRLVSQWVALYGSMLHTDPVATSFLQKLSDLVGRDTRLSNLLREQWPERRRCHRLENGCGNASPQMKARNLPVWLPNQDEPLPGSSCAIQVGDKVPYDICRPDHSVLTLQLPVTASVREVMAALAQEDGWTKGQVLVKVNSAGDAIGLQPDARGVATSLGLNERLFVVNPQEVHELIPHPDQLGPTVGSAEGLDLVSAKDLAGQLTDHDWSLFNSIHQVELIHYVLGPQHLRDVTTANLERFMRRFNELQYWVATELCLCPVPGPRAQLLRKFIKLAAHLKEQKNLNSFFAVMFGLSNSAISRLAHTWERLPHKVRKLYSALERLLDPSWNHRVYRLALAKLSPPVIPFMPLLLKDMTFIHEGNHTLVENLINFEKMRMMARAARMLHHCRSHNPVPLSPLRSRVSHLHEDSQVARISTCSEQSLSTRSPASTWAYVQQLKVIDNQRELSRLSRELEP
# Sequence of UniProt Q9Y253 (Q9Y253 whole entry, looked up): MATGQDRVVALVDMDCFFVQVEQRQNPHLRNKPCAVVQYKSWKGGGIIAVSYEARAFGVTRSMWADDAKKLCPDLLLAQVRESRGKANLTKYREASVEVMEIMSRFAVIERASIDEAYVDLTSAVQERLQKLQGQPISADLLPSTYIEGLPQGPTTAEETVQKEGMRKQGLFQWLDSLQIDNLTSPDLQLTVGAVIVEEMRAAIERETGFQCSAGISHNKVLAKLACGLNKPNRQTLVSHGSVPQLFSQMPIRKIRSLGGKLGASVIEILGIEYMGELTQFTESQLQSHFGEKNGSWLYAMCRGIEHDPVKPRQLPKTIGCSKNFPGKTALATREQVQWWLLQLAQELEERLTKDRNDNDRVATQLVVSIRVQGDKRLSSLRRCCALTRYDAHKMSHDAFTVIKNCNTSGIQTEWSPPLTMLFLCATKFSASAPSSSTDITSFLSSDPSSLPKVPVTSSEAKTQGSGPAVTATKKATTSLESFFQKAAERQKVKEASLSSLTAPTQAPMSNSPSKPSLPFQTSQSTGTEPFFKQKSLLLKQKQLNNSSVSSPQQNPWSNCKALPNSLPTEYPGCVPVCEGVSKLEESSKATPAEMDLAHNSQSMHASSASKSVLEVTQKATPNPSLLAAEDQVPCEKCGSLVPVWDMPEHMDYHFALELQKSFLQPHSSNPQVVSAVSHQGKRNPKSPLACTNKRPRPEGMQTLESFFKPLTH
# Sequence of UniProt Q8WZA2 (Q8WZA2 whole entry, looked up): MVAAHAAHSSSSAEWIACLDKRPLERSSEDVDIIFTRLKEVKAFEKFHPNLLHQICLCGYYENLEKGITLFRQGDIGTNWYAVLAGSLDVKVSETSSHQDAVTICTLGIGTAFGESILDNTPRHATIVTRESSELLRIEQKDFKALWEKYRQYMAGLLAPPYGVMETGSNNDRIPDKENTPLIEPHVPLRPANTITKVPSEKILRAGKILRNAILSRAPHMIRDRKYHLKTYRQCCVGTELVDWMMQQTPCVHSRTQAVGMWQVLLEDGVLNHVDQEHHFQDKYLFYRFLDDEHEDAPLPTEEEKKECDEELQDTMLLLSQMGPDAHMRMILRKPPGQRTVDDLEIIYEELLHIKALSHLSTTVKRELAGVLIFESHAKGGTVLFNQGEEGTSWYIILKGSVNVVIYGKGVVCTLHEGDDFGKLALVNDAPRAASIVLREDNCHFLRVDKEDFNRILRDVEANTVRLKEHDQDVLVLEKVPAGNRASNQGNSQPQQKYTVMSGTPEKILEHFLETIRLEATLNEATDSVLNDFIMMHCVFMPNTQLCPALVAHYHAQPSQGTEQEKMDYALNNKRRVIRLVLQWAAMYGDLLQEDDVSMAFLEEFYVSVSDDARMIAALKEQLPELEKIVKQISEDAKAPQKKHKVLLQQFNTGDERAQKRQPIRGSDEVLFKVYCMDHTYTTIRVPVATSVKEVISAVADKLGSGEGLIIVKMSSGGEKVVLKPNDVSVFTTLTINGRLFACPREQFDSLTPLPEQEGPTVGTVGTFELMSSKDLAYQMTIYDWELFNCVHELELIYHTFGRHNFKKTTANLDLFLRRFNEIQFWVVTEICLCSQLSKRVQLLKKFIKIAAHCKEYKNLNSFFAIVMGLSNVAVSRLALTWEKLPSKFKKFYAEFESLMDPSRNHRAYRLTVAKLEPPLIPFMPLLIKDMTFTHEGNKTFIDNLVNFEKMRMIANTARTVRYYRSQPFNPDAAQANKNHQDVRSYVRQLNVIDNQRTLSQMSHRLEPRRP
structure (smiles),measurement,setting,value
O=c1c(O)c(Br)ccc2c(Br)c(O)c(O)c(O)c12,Potency,[1],"inconclusive: 5.62 µM [inhibitor, full curve, poor fit]"
same,Potency,[2],active: 23.5 µM
same,Potency,[3],inactive
COc1ccc(S(=O)(=O)c2c(Nc3ccc(C)cc3)sc(C(=O)c3ccc4c(c3)OCO4)c2N)cc1,Potency,[2],"inconclusive: 41.8 µM [inhibitor, partial curve]"
same,Potency,[4],inactive
same,"activity change, negative = inhibition",[5],inactive: 37.2% [at 1.74 µM]
COc1ccc(S(=O)(=O)c2cc(NS(=O)(=O)c3ccc(Cl)cc3)c(C)c(C)c2O)cc1,Potency,[2],inactive
same,"activity change, negative = inhibition",[5],inactive: 59.4% [at 1.74 µM]
O=C(CNc1nnc(-c2ccc([S+](=O)([O-])N3CCCC3)cc2)n1-c1ccccc1)Nc1ccc(C(=O)O)cc1,Potency,[2],inactive
same,Potency,[4],inactive
same,Potency,[5],"inconclusive: 0.138 µM [inhibitor, full curve, poor fit]"
O=C(Nc1ccc(Oc2ccccc2)cc1)O[C@@H]1CO[C@H]2[C@@H]1OC[C@@H]2NS(=O)(=O)c1ccc2ccccc2c1,Potency,[2],"inconclusive: 44.1 µM [inhibitor, partial curve]"
same,Potency,[5],"inconclusive: 20.8 µM [inhibitor, partial curve, poor fit]"
CC(C)c1ccc(Nc2sc(C(=O)c3ccccc3)c(N)c2S(=O)(=O)c2ccccc2)cc1,Potency,[2],"inconclusive: 41.8 µM [inhibitor, partial curve]"
same,Potency,[4],inactive
CCOC(=O)c1ccc(NC(=O)c2nc(SCc3ccc(F)cc3)ncc2Cl)cc1,Potency,[2],"inconclusive: 59.1 µM [inhibitor, partial curve, poor fit]"
same,Potency,[5],inactive
O=C(Nc1ccccc1C(=O)OCc1cc(=O)n2c3c(sc2n1)CCCC3)c1ccc(F)cc1,Potency,[2],"inconclusive: 83.5 µM [inhibitor, single point]"
same,Potency,[4],"inconclusive: 63.1 µM [inhibitor, single point]"
same,Potency,[6],inactive
same,Potency,[7],"inconclusive: 56.2 µM [activator, partial curve, poor fit]"
same,activation,[8],inconclusive: 31.4% [activator]
O=C(Nc1ccc(C(=O)OCc2cc(=O)n3c4c(sc3n2)CCCC4)cc1)c1cccc(F)c1,Potency,[2],active: 46.9 µM
same,Potency,[5],"inconclusive: 28.2 µM [inhibitor, partial curve, poor fit]"
N#C/C(=C\c1ccc(-c2cc(Cl)ccc2Cl)o1)C(=O)Nc1ccccc1C(=O)O,Potency,[9],"inconclusive: 84.9 µM [inhibitor, single point]"
same,Potency,[2],"inconclusive: 26.4 µM [inhibitor, partial curve, poor fit]"
same,Potency,[3],"inconclusive: 3.98 µM [inhibitor, full curve, poor fit]"
same,Potency,[10],"inconclusive: 200 µM [inhibitor, partial curve, poor fit]"
same,"activity change, negative = inhibition",[5],inactive: 48.2% [at 5.25 µM]
CCOC(=O)c1ccc(CN(Cc2ccccc2C)S(=O)(=O)c2ccc(F)c(C(=O)Nc3cccc(OC)c3)c2)cc1,Potency,[2],"inconclusive: 52.7 µM [inhibitor, single point]"
same,Potency,[5],inconclusive: 0.0006 µM [inhibitor]
O=C(Nc1ccccc1C(=O)OCc1cc(=O)n2c3c(sc2n1)CCCC3)c1cccc(Cl)c1,Potency,[2],"inconclusive: 66.3 µM [inhibitor, single point]"
same,Potency,[4],"inconclusive: 31.6 µM [inhibitor, partial curve]"
same,Potency,[5],inactive
CCOC(=O)c1ccc(CN(Cc2ccc(F)cc2)S(=O)(=O)c2cc(C(=O)Nc3cccc(C(F)(F)F)c3)ccc2F)cc1,Potency,[2],"inconclusive: 52.7 µM [inhibitor, partial curve]"
same,Potency,[4],inactive
same,Potency,[5],"inconclusive: 0.883 µM [inhibitor, single point]"
COc1ccccc1-c1ccnc(N[C@H]2CO[C@H]3[C@@H]2OC[C@@H]3NS(=O)(=O)c2ccc3ccccc3c2)n1,Potency,[2],"inconclusive: 7.84 µM [inhibitor, single point]"
same,Potency,[5],active: 16.5 µM
O=C(O)c1ccc(NS(=O)(=O)c2ccc(Cl)c(C(=O)Nc3ccccc3)c2)cc1,Potency,[2],inactive
same,"activity change, negative = inhibition",[5],inactive: 49.9% [at 1.74 µM]
Clc1ccc(-c2nn3c(COc4cc(Cl)c(OCc5nnc6sc(-c7ccc(Cl)cc7)nn56)cc4Cl)nnc3s2)cc1,Potency,[2],"inconclusive: 44.7 µM [inhibitor, partial curve]"
same,Potency,[11],active: 14.1 µM
same,Potency,[5],"inconclusive: 1.26 µM [inhibitor, full curve, poor fit]"
O=C(Nc1cccc(C(=O)OCc2cc(=O)n3c4c(sc3n2)CCCC4)c1)c1cccc(Cl)c1,Potency,[2],"inconclusive: 41.8 µM [inhibitor, partial curve]"
same,Potency,[4],"inconclusive: 35.5 µM [inhibitor, partial curve, poor fit]"
same,"activity change, negative = inhibition",[5],inactive: 22.3% [at 1.74 µM]
CC(C)c1ccc(NC(=O)c2ccc3c(O)c(S(=O)(=O)c4ccccc4)c(=O)[nH]c3c2)cc1,Potency,[2],"inconclusive: 93.6 µM [inhibitor, single point]"
same,Potency,[3],inactive
same,Potency,[5],"inconclusive: 0.0011 µM [inhibitor, full curve, poor fit]"
CCc1nn2c(=O)cc(COC(=O)c3ccccc3NC(=O)c3ccc(C(C)(C)C)cc3)nc2s1,Potency,[2],"inconclusive: 83.5 µM [inhibitor, single point]"
same,Potency,[4],"inconclusive: 31.6 µM [inhibitor, partial curve, poor fit]"
same,Potency,[5],"inconclusive: 0.138 µM [inhibitor, partial curve, poor fit]"
